Source: PubChem BioAssay AID504339 (National Center for Advancing Translational Sciences (NCATS), 2011)
In all, about 390,000 compounds went through this assay and about 17,000 (4.4%) were called active. The shares of active, inactive and inconclusive entries below differ from those in the screen. The call rests on the fitted dose curve; in most records, active means well fitted inhibition curve with a large enough effect; inconclusive means small, poorly fitted or top-dose-only effect; inactive means no such curve, though single readings can be large or run the other way. Potencies of inconclusive entries are doubtful fits and often do not repeat.

target: Lysine-specific demethylase 4A (Homo sapiens) (UniProt O75164); assay: qHTS Assay for Inhibitors of JMJD2A-Tudor Domain; details: AlphaScreen JMJD2A-Tudor / H3K4me3 peptide binding; activity change, negative = inhibition: at 114 µM (top of the series); further: nearly all actives have a fitted effect of over 50% in size
On the % scale 0 is the no-effect control and ±100 the full control effect; potency means the concentration at half of the fitted maximal effect; tags describe the fitted curve by direction and shape.

Chain of UniProt O75164 (O75164 whole entry, looked up, the tested form may be a part): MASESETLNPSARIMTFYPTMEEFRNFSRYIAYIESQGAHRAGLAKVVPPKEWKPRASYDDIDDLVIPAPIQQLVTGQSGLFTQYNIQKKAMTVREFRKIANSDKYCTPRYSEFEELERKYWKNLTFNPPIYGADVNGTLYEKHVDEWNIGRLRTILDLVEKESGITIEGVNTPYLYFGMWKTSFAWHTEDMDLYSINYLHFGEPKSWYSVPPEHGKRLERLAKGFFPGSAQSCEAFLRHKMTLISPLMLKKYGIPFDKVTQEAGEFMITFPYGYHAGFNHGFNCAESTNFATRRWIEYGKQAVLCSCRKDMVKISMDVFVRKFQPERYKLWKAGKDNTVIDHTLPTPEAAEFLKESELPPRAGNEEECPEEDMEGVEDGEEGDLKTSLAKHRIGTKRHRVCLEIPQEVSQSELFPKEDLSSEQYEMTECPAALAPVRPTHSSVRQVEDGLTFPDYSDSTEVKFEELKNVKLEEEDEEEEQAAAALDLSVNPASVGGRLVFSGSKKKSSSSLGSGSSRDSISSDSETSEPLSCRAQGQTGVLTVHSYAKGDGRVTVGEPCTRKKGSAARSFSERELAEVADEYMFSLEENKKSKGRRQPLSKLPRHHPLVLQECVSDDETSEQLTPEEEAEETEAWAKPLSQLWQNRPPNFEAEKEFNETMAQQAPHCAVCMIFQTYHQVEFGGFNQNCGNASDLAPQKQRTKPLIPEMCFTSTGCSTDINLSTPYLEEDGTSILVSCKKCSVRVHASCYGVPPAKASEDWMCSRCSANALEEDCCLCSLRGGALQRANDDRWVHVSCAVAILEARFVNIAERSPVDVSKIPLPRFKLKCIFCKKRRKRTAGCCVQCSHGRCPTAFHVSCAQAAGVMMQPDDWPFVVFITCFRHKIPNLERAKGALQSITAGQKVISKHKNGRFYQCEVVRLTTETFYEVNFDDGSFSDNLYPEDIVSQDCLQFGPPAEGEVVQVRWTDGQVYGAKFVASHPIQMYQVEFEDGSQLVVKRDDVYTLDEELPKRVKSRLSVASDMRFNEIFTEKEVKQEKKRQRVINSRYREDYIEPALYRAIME

Potency, inconclusive:
O=Cc1c(N2CCN(c3cccc(Cl)c3)CC2)nc2ccccn2c1=O 50.1 µM [inhibitor, partial curve], CCCSc1cc(=O)n(-c2ccc(F)cc2)nc1C(=O)OCC 56.2 µM [inhibitor, partial curve, poor fit], O=C(NC(=S)Nc1ccccc1C(=O)O)c1cncc(Br)c1 50.1 µM [inhibitor, partial curve], O=C1C(Cc2ccccc2)Nc2ncnc(N3CCOCC3)c2N1Cc1ccc(Cl)cc1 (stereo not drawn) 56.2 µM [inhibitor, partial curve], C=CCOc1ccccc1/C=c1\sc2nc(=O)c(C)nn2c1=O 79.4 µM [inhibitor, partial curve], CCCn1c(N2CCN(Cc3ccc(Cl)cc3)CC2)nc2ccccc21 79.4 µM [inhibitor, single point], COC(=O)C(NC(=O)c1ccccc1Cl)(Nc1ncc(S(=O)(=O)c2ccc([N+](=O)[O-])cc2)s1)C(F)(F)F (stereo not drawn) 39.8 µM [inhibitor, full curve], CCCc1cc(=O)oc2c(CNc3ccc(OCC)cc3)c(O)ccc12 63.1 µM [inhibitor, partial curve], CC1CCC(NC(=O)c2ccc(CS(=O)(=O)Cc3ccccc3F)o2)CC1 (stereo not drawn) 22.4 µM [inhibitor, single point], CCN(C(=O)CN1C(=O)NC(c2ccccc2)(c2ccc(C)c(C)c2)C1=O)C1CCCCC1 (stereo not drawn) 22.4 µM [inhibitor, partial curve], CCOc1ccc(Nc2ccc(S(=O)(=O)N3CCN(C)CC3)cc2[N+](=O)[O-])cc1OCC 14.1 µM [inhibitor, full curve], Cc1ccc(NS(=O)(=O)c2ccc(C(=O)NCC(c3ccco3)N3CCCCC3)cc2)cc1 (stereo not drawn) 79.4 µM [inhibitor, partial curve, poor fit], O=c1cc(CSc2nnc(COc3ccccc3)o2)c2ccccc2[nH]1 0.631 µM [inhibitor, full curve, poor fit], Cc1ccccc1OCC(O)Cn1c(NCc2ccccc2)nc2c1c(=O)[nH]c(=O)n2C (stereo not drawn) 79.4 µM [inhibitor, partial curve], O=C1c2ccccc2C(=O)C1(c1ccccc1)N1CCN(c2cccc(C(F)(F)F)c2)CC1 7.08 µM [inhibitor, full curve], COc1ccc(N/N=C(\C#N)C(=O)NCCc2ccc(OC)c(OC)c2)cc1 79.4 µM [inhibitor, partial curve], CCOc1ccc(S(=O)(=O)N2CCCCC2)cc1NC(=O)CN1C(=O)NC(C)(c2ccc(C)cc2)C1=O (stereo not drawn) 56.2 µM [inhibitor, partial curve], Cc1ccc(/C=N/NC(=O)Cc2c[nH]c3ccccc23)c(C)c1 79.4 µM [inhibitor, partial curve], CCN(CC(=O)Nc1c(C(=O)OC)[nH]c2ccccc12)c1ccc2c(c1)OCO2 28.2 µM [inhibitor, single point], NNC(=O)c1sc2cc(C(F)(F)F)cnc2c1-c1cccnc1 3.55 µM [inhibitor, single point], COc1ccc(N2CCN(CCCNC(=O)CCC(=O)N3CCOc4ccc(Cl)cc43)CC2)cc1 63.1 µM [inhibitor, partial curve, poor fit], CC(=O)c1c(C)[nH]c(-c2ccccc2)c1C 35.5 µM [inhibitor, partial curve], COc1ccc(Cn2c(SCc3cc(C)ccc3C)nc3cc(OC)c(OC)cc3c2=N)cc1 50.1 µM [inhibitor, partial curve], Nc1c(C(=O)NCc2cccnc2)sc(=S)n1-c1ccccc1 28.2 µM [inhibitor, full curve], CCN1C(C(=O)c2ccccc2)=C(OC(=O)COc2ccc(OC)cc2)c2ccccc2S1(=O)=O 50.1 µM [inhibitor, partial curve], CCOC(=O)C1=C(C)NC(=O)NC1c1cc2c(cc1Br)OCO2 (stereo not drawn) 89.1 µM [inhibitor, single point], S=C(NCC1CCCO1)N1CCN(c2nc(-c3ccc(Cl)cc3)cs2)CC1 (stereo not drawn) 20 µM [inhibitor, full curve, poor fit], COc1cccc(C(=O)NC(=NCCc2c[nH]c3ccc(OC)cc23)Nc2nc(C)cc(C)n2)c1 11.2 µM [inhibitor, full curve, poor fit], O=c1oc2ccccc2cc1-c1csc(Nc2ccc(O)cc2)n1 12.6 µM [inhibitor, full curve, poor fit], CCN(CC)CCn1c2ccc(Cl)cc2c2nc(C)sc21 79.4 µM [inhibitor, partial curve], O=C1c2ccccc2C(=O)c2cc(S(=O)(=O)Nc3ccccc3)ccc21 28.2 µM [inhibitor, single point], Cc1cc(C)c2nc(N(CCCN(C)C)C(=O)c3ccc4c(c3)OCCO4)sc2c1 50.1 µM [inhibitor, partial curve], COc1ccc(C(=O)NC(=S)N2CCC(C)CC2)cc1Br 79.4 µM [inhibitor, partial curve], COc1ccc(S(=O)(=O)N2CN(Cc3ccco3)c3nc4ccccc4nc32)cc1 44.7 µM [inhibitor, partial curve], Oc1ccc(/C=N/n2c3ccccc3c3ccccc32)cc1 56.2 µM [inhibitor, partial curve], COc1ccccc1NC(=O)COC(=O)c1cc([N+](=O)[O-])ccc1N1CCCC1 50.1 µM [inhibitor, partial curve], CCc1ccc(NC(=O)CN2CCN(c3ccc(OC)cc3)CC2)cc1 56.2 µM [inhibitor, partial curve], CCCSc1nc(NCc2ccco2)c2c3c(sc2n1)COC(C)(C)C3 28.2 µM [inhibitor, full curve, poor fit], COc1cc(C2c3cc4c(cc3OC(NCc3ccccc3)C2C)OCO4)cc(OC)c1OC (stereo not drawn) 28.2 µM [inhibitor, full curve], CCCc1cc(-c2n[nH]c(C)c2-c2ccc(C(=O)OCC)o2)c(O)cc1O 56.2 µM [inhibitor, partial curve], S=C1NNC2(CC3CC2C2CCCC32)NN1 (stereo not drawn) 39.8 µM [inhibitor, full curve, poor fit], Cc1cccc(N2CCN(C(=O)c3ccc4c(Cl)c5c(nc4c3)CCCC5)CC2C)c1 (stereo not drawn) 39.8 µM [inhibitor, partial curve], CCCCNc1ccc2oc(-c3ccc(OC)cc3)c(-c3ccc(OC)c(F)c3)c2c1 31.6 µM [inhibitor, single point], N#CC1=C(N)SC(N)=C(C#N)C1c1cccc(O)c1 79.4 µM [inhibitor, single point]

Potency, active:
C/C(=N\NC(=O)c1ccccc1F)c1ccccn1 35.5 µM, COc1ccc(NC(=O)C2CCCN2C(=O)NCc2ccccc2)cc1 (stereo not drawn) 14.1 µM, COc1ccc(C2/C(=C(/O)c3cnn(-c4ccccc4)c3C)C(=O)C(=O)N2CCN(C)C)cc1OC (stereo not drawn) 17.8 µM, Cc1cc(C)cc(S(=O)(=O)c2cnc3ccccc3n2)c1 11.2 µM, c1ccc(N2CCN(c3nc(NCc4ccco4)c4ccccc4n3)CC2)cc1 50.1 µM, Cc1cc(C)n2nc(SCC(=O)N/N=C/c3ccccn3)nc2n1 8.91 µM, CCCCC1(C(=O)OCC)NC(c2ccc(O)cc2)C2C(=O)N(c3ccccc3)C(=O)C21 (stereo not drawn) 28.2 µM

Potency, inactive:
O=C(c1cc2nc(-c3ccco3)cc(C(F)(F)F)n2n1)N1CCCCCC1, Cc1ccc(-c2nc3sc(CCNC(=O)c4ccco4)c(C)n3n2)cc1, COc1ccc(OC)c2c1nc1n2CCS1, Cc1ccc(NC(=O)N2CCC(CN3CCCCCC3)CC2)c(Cl)c1, CCCN1C(=O)CC(=O)N=C1SCC(=O)Nc1ccccc1F, Cc1cccc(C(=O)OCc2cc(=O)n3nc(C4CC4)sc3n2)c1, CCOC(=O)/C=C1\NC2(CCCCC2)Cc2cc(OC)c(OC)cc21, O=Cc1cn(-c2ccccc2)nc1-c1ccccc1, C=CCN1C(=O)c2ccccc2C1(O)Cc1ccccc1 (stereo not drawn), O=C(Nc1ccc(-c2nc3ccccc3o2)c(O)c1)c1cc(-n2cnnc2)ccc1Cl, CCOc1ccc(C(=O)CCC(=O)N(CC)CC(=O)Nc2c(F)cccc2F)cc1, COC(=O)C1(C)CCc2cc(OC)ccc2C1=O (stereo not drawn), CN(c1ccccc1C(=O)N1CCN(c2ccccc2F)CC1)S(=O)(=O)c1ccccc1, Cc1noc(C)c1-c1nc(CS(=O)(=O)c2ccccc2)no1, Cc1ccc(NC(=O)CCC(=O)c2ccc(Cl)s2)nc1, O=C(CN1C(=O)CSC1=O)Nc1ccc2c(c1)OCCO2

Activity change, negative = inhibition, inactive:
O=C(O)c1ccc(-c2ccccc2)[nH]c1=O -16.9% [at 11.4 µM]
